In the supplement of paper PMC10441789:
The list shows a part of the results. Antibody binding of pooled human sera (four to six donors per pool; dilution not stated) to peptides of the Trypanosoma cruzi antigen TSSA on microarrays. Quantile-normalised fluorescence in arbitrary units, mean of duplicate arrays; higher = more binding. No active / inactive call. The uninfected pools are read here as the healthy donors of the same country. The strongest signals lie near the top of the scale (about 60,000).

Test system: pooled sera of chronic Chagas disease patients, Argentina
Assay: antibody binding signal (normalised fluorescence) (arbitrary fluorescence units); higher = stronger serum antibody binding to peptide
Protocol: (§1)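 Microarray of 15-residue peptides over residues 30-55 of Trypanosoma cruzi TSSAII, each with 1 to 10 substitutions at naturally variable positions, probed with one serum pool per country.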

Row | Sequence | antibody binding signal
1 | TDKKTAAGGAPSQPG | 1270
2 | DKKAATGETPSQPGA | 4540
3 | GTDNKAAAGGTPSPS | 318
4 | GKDNKTAAGETPSPP | 1660
5 | SGTENKPAAGEAPSQ | 45300
6 | SGTDNKTAAGGTPSP | 2280
7 | PPSGKEKKTAAGGTP | 1920
8 | SGTEKKTATGETPSQ | 741
9 | TENKTAAGEAPSPSG | 20100
10 | KTATGEAPSQPGASS | 19800
11 | PSGKEKKAAAGEAPS | 8820
12 | SGTENKTATGEAPSQ | 23300
13 | GTDKKTAAGETPSPP | 227
14 | KDKKAATGGAPSQSG | 442
15 | GKDNKTATGGTPSPP | 1810
16 | DNKAAAGETPSQSGA | 306
17 | GTEKKPAAGGAPSPP | 799
18 | ENKTATGGAPSQSGA | 557
19 | PSGKENKPATGGTPS | 8140
20 | PPSGTENKAATGGTP | 48800

Row | Sequence | antibody binding signal
21 | EKKPATGGAPSPSGA | 1420
22 | PSGTEKKPAAGETPS | 27000
23 | KEKKPATGGAPSQPG | 397
24 | GKEKKPAAGETPSPS | 5850
25 | KDKKAATGETPSQSG | 476
26 | GTDNKPAAGGTPSQS | 2340
27 | NKPAAGEAPSQPGAS | 9960
28 | KENKTATGGTPSPPG | 267
29 | PSGTEKKTATGETPS | 5980
30 | GKENKTATGEAPSPP | 17400
31 | GKDNKTATGETPSQS | 4480
32 | EKKPATGGTPSPSGA | 1370
33 | ENKAAAGGTPSQPGA | 276
34 | GKDKKAAAGETPSQS | 585
35 | GKENKPATGETPSQP | 37800
36 | SGKDKKTAAGETPSQ | 537
37 | TENKTAAGGTPSQSG | 23000
38 | GKDKKPAAGEAPSQS | 442
39 | GTDKKAATGGTPSQP | 459

Test system: pooled sera of chronic Chagas disease patients, Bolivia
Assay: as above
Protocol: as §1

Row | Sequence | antibody binding signal
40 | TDKKTAAGGAPSQPG | 458
41 | DKKAATGETPSQPGA | 1790
42 | GTDNKAAAGGTPSPS | 152
43 | GKDNKTAAGETPSPP | 382
44 | SGTENKPAAGEAPSQ | 24700
45 | SGTDNKTAAGGTPSP | 521
46 | PPSGKEKKTAAGGTP | 533
47 | SGTEKKTATGETPSQ | 1180
48 | TENKTAAGEAPSPSG | 1140
49 | KTATGEAPSQPGASS | 16500
50 | PSGKEKKAAAGEAPS | 2160
51 | SGTENKTATGEAPSQ | 35200
52 | GTDKKTAAGETPSPP | 257
53 | KDKKAATGGAPSQSG | 225
54 | GKDNKTATGGTPSPP | 342
55 | DNKAAAGETPSQSGA | 542
56 | GTEKKPAAGGAPSPP | 271
57 | ENKTATGGAPSQSGA | 2630
58 | PSGKENKPATGGTPS | 1540
59 | PPSGTENKAATGGTP | 38900

Row | Sequence | antibody binding signal
60 | EKKPATGGAPSPSGA | 915
61 | PSGTEKKPAAGETPS | 6560
62 | KEKKPATGGAPSQPG | 284
63 | GKEKKPAAGETPSPS | 665
64 | KDKKAATGETPSQSG | 260
65 | GTDNKPAAGGTPSQS | 274
66 | NKPAAGEAPSQPGAS | 37400
67 | KENKTATGGTPSPPG | 584
68 | PSGTEKKTATGETPS | 3380
69 | GKENKTATGEAPSPP | 18300
70 | GKDNKTATGETPSQS | 1770
71 | EKKPATGGTPSPSGA | 404
72 | ENKAAAGGTPSQPGA | 1160
73 | GKDKKAAAGETPSQS | 210
74 | GKENKPATGETPSQP | 20000
75 | SGKDKKTAAGETPSQ | 393
76 | TENKTAAGGTPSQSG | 547
77 | GKDKKPAAGEAPSQS | 1190
78 | GTDKKAATGGTPSQP | 423

Test system: pooled sera of chronic Chagas disease patients, Brazil
Assay: as above
Protocol: as §1

Row | Sequence | antibody binding signal
79 | TDKKTAAGGAPSQPG | 2140
80 | DKKAATGETPSQPGA | 36500
81 | GTDNKAAAGGTPSPS | 28300
82 | GKDNKTAAGETPSPP | 1120
83 | SGTENKPAAGEAPSQ | 38800
84 | SGTDNKTAAGGTPSP | 43600
85 | PPSGKEKKTAAGGTP | 1610
86 | SGTEKKTATGETPSQ | 4600
87 | TENKTAAGEAPSPSG | 2040
88 | KTATGEAPSQPGASS | 44800
89 | PSGKEKKAAAGEAPS | 9800
90 | SGTENKTATGEAPSQ | 31200
91 | GTDKKTAAGETPSPP | 466
92 | KDKKAATGGAPSQSG | 188
93 | GKDNKTATGGTPSPP | 831
94 | DNKAAAGETPSQSGA | 15100
95 | GTEKKPAAGGAPSPP | 436
96 | ENKTATGGAPSQSGA | 1120
97 | PSGKENKPATGGTPS | 8590
98 | PPSGTENKAATGGTP | 45700

Row | Sequence | antibody binding signal
99 | EKKPATGGAPSPSGA | 1210
100 | PSGTEKKPAAGETPS | 20700
101 | KEKKPATGGAPSQPG | 4840
102 | GKEKKPAAGETPSPS | 1510
103 | KDKKAATGETPSQSG | 6630
104 | GTDNKPAAGGTPSQS | 42800
105 | NKPAAGEAPSQPGAS | 45200
106 | KENKTATGGTPSPPG | 262
107 | PSGTEKKTATGETPS | 3840
108 | GKENKTATGEAPSPP | 23900
109 | GKDNKTATGETPSQS | 6500
110 | EKKPATGGTPSPSGA | 569
111 | ENKAAAGGTPSQPGA | 1910
112 | GKDKKAAAGETPSQS | 416
113 | GKENKPATGETPSQP | 37900
114 | SGKDKKTAAGETPSQ | 725
115 | TENKTAAGGTPSQSG | 366
116 | GKDKKPAAGEAPSQS | 7260
117 | GTDKKAATGGTPSQP | 867

Test system: pooled sera of chronic Chagas disease patients, Colombia
Assay: as above
Protocol: as §1

Row | Sequence | antibody binding signal
118 | TDKKTAAGGAPSQPG | 6340
119 | DKKAATGETPSQPGA | 230
120 | GTDNKAAAGGTPSPS | 3130
121 | GKDNKTAAGETPSPP | 3570
122 | SGTENKPAAGEAPSQ | 517
123 | SGTDNKTAAGGTPSP | 6340
124 | PPSGKEKKTAAGGTP | 7130
125 | SGTEKKTATGETPSQ | 403
126 | TENKTAAGEAPSPSG | 113
127 | KTATGEAPSQPGASS | 150
128 | PSGKEKKAAAGEAPS | 12000
129 | SGTENKTATGEAPSQ | 190
130 | GTDKKTAAGETPSPP | 1030
131 | KDKKAATGGAPSQSG | 226
132 | GKDNKTATGGTPSPP | 4030
133 | DNKAAAGETPSQSGA | 143
134 | GTEKKPAAGGAPSPP | 5360
135 | ENKTATGGAPSQSGA | 516
136 | PSGKENKPATGGTPS | 7250
137 | PPSGTENKAATGGTP | 562

Row | Sequence | antibody binding signal
138 | EKKPATGGAPSPSGA | 2490
139 | PSGTEKKPAAGETPS | 6260
140 | KEKKPATGGAPSQPG | 306
141 | GKEKKPAAGETPSPS | 4140
142 | KDKKAATGETPSQSG | 165
143 | GTDNKPAAGGTPSQS | 2030
144 | NKPAAGEAPSQPGAS | 332
145 | KENKTATGGTPSPPG | 625
146 | PSGTEKKTATGETPS | 1400
147 | GKENKTATGEAPSPP | 9150
148 | GKDNKTATGETPSQS | 8420
149 | EKKPATGGTPSPSGA | 3190
150 | ENKAAAGGTPSQPGA | 3990
151 | GKDKKAAAGETPSQS | 1590
152 | GKENKPATGETPSQP | 12700
153 | SGKDKKTAAGETPSQ | 936
154 | TENKTAAGGTPSQSG | 4920
155 | GKDKKPAAGEAPSQS | 757
156 | GTDKKAATGGTPSQP | 3450
